# In the supplement of paper PMC11417369:
# ± gives the standard deviation of the averaged measurements. This is one part of the list.
# System: PfAP2-EXP AP2 domain (GST-tagged)
# Test: gcPBM binding intensity (ln(normalized median fluorescence intensity)); higher = stronger DNA binding
# Procedure, shortened: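 GST-fused DNA-binding domains of P. falciparum, expressed in E. coli, were applied at about 25 μg on average for 1 h to an Agilent 4 × 180k array of primer-extended double-stranded 36-bp intergenic genomic probes and negative controls. Binding intensity is the highest Masliner-normalised natural-log median intensity across replicate spots of either probe orientation, measured with Alexa488 anti-GST antibody and a 488 nm scan.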
row,Sequence,gcPBM binding intensity (ln)
1,AAGCAAACATATTAATGTACACACACCCACACACAA [XGTACX_site5806],8.87 ± 0.33
2,TAAGATAAATGATAAAGTACTTTTTTTTTTTAAATA [XGTACX_site2326],8.01 ± 0.38
3,ATTATAAATATGTATATACACACTTTTAATATTCAT [CACACA_site9367],8.47 ± 0.33
4,ACAAAAATATTATATTGTACATTATTAGTTCATATT [XGTACX_site6750],8.5 ± 0.3
5,TTTTTATATAAATAATGTACATTTGGTTTTATTATA [XGTACX_site2125],8.53 ± 0.35
6,TATTTGTATAAATAAAAATAATATATATCAAATAAC [CACACA_negctrl_site218],8.41 ± 0.42
7,AACACCCACAGACACACACACAAAAATGATTAAAAA [CACACA_site2433],8.55 ± 0.6
8,TGAACTCATAGGAAAACACACATATGTGTAATATAT [CACACA_site4267],8.88 ± 0.45
9,AACAAAAAAACAAACACACACACACGCATATTTATA [CACACA_site7680],8.52 ± 0.2
10,AAATATAGTATTAAAACACACATTTATATAAAAAGG [CACACA_site1482],8.59 ± 0.42
11,AAAAACAACACAGATAAATTAACACACACACACATA [XGTACX_negctrl_site588],8.76 ± 0.47
12,TTATGTGATTTTAATTGTACATAAATATTTGTTAAC [XGTACX_site3489],8.52 ± 0.42
13,TATATACTCAGACATACACACAAATAAAAAAACACC [CACACA_site5820],9.21 ± 0.29
14,CACGCATACAGACACACACACACACGGATATAAATA [CACACA_site6445],8.53 ± 0.49
15,CAATAAATCGAAATCGTGCACGGACACATGCAGTAG,9.53 ± 0.23
16,ATATATATAATAAGTGGTACAAGTTATTCATTAAAT [XGTACX_site7063],8.64 ± 0.3
17,AAATAATATAAATACACACACACATATATAAATACA [CACACA_site4465],8.69 ± 0.48
18,GGTTCATTTATATGGAGTACAAAAAATATGTATATA [XGTACX_site8209],8.59 ± 0.25
19,TAAAGTTATATATTATGTACATATTTGTATACATTT [XGTACX_site2516],8.7 ± 0.32
20,AAAGAAAACGGACTTTGTACTTAAATATAATATAAA [XGTACX_site8585],8.62 ± 0.48
21,TTTTTTTATACAATTTTATATATTAAATATTATAAT [CACACA_negctrl_site226],8.3 ± 0.43
22,ACAAAACTTTTAAGAACACACAAAAATGTACTATCG [CACACA_site7245],8.47 ± 0.4

row,Sequence,gcPBM binding intensity (ln)
1,CATTTACATGCCAACATGCACTGAACAATCTTTATA [GTGCAC_site9797],8.85 ± 0.31
2,CCCTATATAAATAGCTGTACATTTGAACATGTTCAG [XGTACX_site2187],8.71 ± 0.5
3,TACAAAAAAAAATAAAATACATATATATATATATAT [XGTACX_negctrl_site608],10.3 ± 0.18
4,TTTTATGAATAATTATGTACATAACAAATGATATAT [XGTACX_site8318],8.79 ± 0.38
5,TTTACAGGAAAAAATACACACATTATTTTACCTTAT [CACACA_site2833],8.27 ± 0.35
6,ACATGCCAAAATCTAATACAATAATAATAAAAAAAA [XGTACX_negctrl_site160],8.51 ± 0.4
7,CAATAAAAATTAAAATGTACAAATAAATATAAATAT [XGTACX_site7265],8.65 ± 0.32
8,ATGAATTATAAATATTCACACAATATTTTTCATATG [CACACA_site4484],8.35 ± 0.36
9,AGTGTGCTCAGCTTAGCACAAATTGGAATACCATGT [CACACA_negctrl_site367],8.63 ± 0.4
10,GAAAATGAAATCCTTGCATGTAAAATTAAAATAGAA [TGCATGCA_site569],9.47 ± 0.25
11,GTAGTAATAAATTAAAGTACAGAATATATTATACTA [XGTACX_site2809],8.56 ± 0.44
12,TTTTTTTCTTAAAGATGTACTTTTTAAAAATAATCT [XGTACX_site1429],8.34 ± 0.4
13,TATTTGCTACATATATGTACTAAAAACTTTTTGCTT [XGTACX_site2362],8.75 ± 0.37
14,TATTATAAAAATATTCAGATACATTAACTTACTTTT [XGTACX_negctrl_site4],7.96 ± 0.38
15,TGTGTGTGTTCATGGGTGCTTTAATACTATTATAGG [GTGCAC_site9465],8.93 ± 0.11
16,TATCAATTTTTCTGGCTATCCAATTAGGGGAAGCCA [CACACA_negctrl_site1045],8.01 ± 0.52
17,CAAAAAATTTGACGTAGTACTTAAAAAAAAAAAAAA [XGTACX_site4523],8.23 ± 0.53
18,ATTTGCTCACAAGAAGCACACAAAAAAAGAAAAAAA [CACACA_site9338],8.34 ± 0.47
19,TATGATTTCACATAATGTACTTGCTAATTCGTGAAT [XGTACX_site1408],8.21 ± 0.3
20,GGGAAAATATTTGGGTGTACAAACAAATTAGCTAGC [XGTACX_site6795],9.03 ± 0.47
21,ATATAAATAAACAGGTGTACTATAATGTTCATAGTA [XGTACX_site1553],8.51 ± 0.33
22,TAATTATATATATATGCATGTTATAATTTTTATTTT [TGCATGCA_site78],8.195 ± 0.007

row,Sequence,gcPBM binding intensity (ln)
1,AAGAAAATATAAAATGCACACTATAAATTGTATTTA [CACACA_site4257],8.38 ± 0.31
2,TCTTTAACAAGTTAAACACACATACATAAATACATA [CACACA_site5406],8.62 ± 0.38
3,TTATGTCATAAATGCACACATATACATTGTTTTGAT [CACACA_site646],8.68 ± 0.19
4,ATTAAGACACATTGCACACGTGCACCCATAGAAAAA [CACACA_site408],9.17 ± 0.41
5,TGAAAAAGGAAAAAAAAAAAAAAAAAAAAAACGAAA [GTGCAC_negctrl_site555],8.27 ± 0.68
6,GACCATATGAATAATGCACACGTTTTAAAATATTAA [CACACA_site5312],8.99 ± 0.028
7,TATTTATTATTAAGATGTACATAAAACACTGAATAA [XGTACX_site4246],8.7 ± 0.28
8,TATCATTTCATATCAAGTACAAACATTTTACATATA [XGTACX_site5307],8.41 ± 0.43
9,TTTTAATTAAGACACACACACACATATAAATATGTA [CACACA_site7144],8.47 ± 0.47
10,ATAATAATATATATTGTACACACAAAATGGGAAAAA [CACACA_site8568],8.98 ± 0.47
11,TATATATATATAATAGTGCATAAATAAATATATAAA,9.65 ± 0.057
12,AGCTCTTGTCATTTTGCACACACACCCGTATAGGTT [CACACA_site3056],9.07 ± 0.42
13,ATCCATTATTTTTGTTGTACGGGTAACTTTAAAAAG [XGTACX_site2226],8.86 ± 0.5
14,TCTTTTTTTTTTAAACGTACATTGCATTATCACGTA [XGTACX_site6873],8.78 ± 0.38
15,GATTCTTCACCGTACTCACACATATATATATATATA [CACACA_site5665],10.2 ± 0.52
16,AAAAGGGAAATAAAATAAAAAAAGAAACATATATAG [CACACA_negctrl_site455],8.85 ± 0.67
17,TTAATTTCTATATACGCATGTATGAATAAGATATTG [TGCATGCA_site202],8.36 ± 0.57
18,TAATTATATGTATACACACACATACATTTACATAAC [CACACA_site3238],8.66 ± 0.52
19,TATAATTATATATATAGTACAGATTTGTTATGTTTA [XGTACX_site7724],8.46 ± 0.47
20,CAAACAAACAAATATACACACTTTTGTATAAAGTAA [CACACA_site5860],8.32 ± 0.42
21,ATTTTTTTATAAGAAAATTTCTAACGTTAAAAAAAA [CACACA_negctrl_site1367],8.38 ± 0.59
22,CACACGCACGAACACACACACACACGCATATAAATA [CACACA_site6302],8.74 ± 0.38

row,Sequence,gcPBM binding intensity (ln)
1,AATATATATATATTCACACATAAAAAAGTAAAAAAA [CACACA_site5040],8.66 ± 0.49
2,TATCTCATAGTATACACACACACACCCACCCATATA [CACACA_site1739],9.29 ± 0.79
3,ATTTCATATACAAATTGTACATACAATTTTATGTTT [XGTACX_site3240],8.5 ± 0.3
4,TTAAAAATAATATTATGTACTAAGAATAAATATATA [XGTACX_site3100],8.34 ± 0.43
5,TGTTAAAATAAAATCTATTACATTTTTATGGTTATA [XGTACX_negctrl_site525],8 ± 0.45
6,TCTTGTAAATATATGTGTATATTATATTTTATTATA [TGCATGCA_negctrl_site117],8.24 ± 0.47
7,TGCAAGGAAAAACACACACACACATAAATGTATATA [CACACA_site751],8.58 ± 0.42
8,CTTAATATTCTTTAAAGTACACAAAATAAGAATATA [XGTACX_site5489],8.87 ± 0.59
9,AAAAAACACGCACATACACACAAAAATGTTATAAAT [CACACA_site6188],8.59 ± 0.59
10,ATCTCATAAAACCGCACACACATAAAATTTGCATTA [CACACA_site3891],8.63 ± 0.39
11,TTATATTTTTTAATTACACACAATTTTTATAAATAT [CACACA_site4148],8.36 ± 0.4
12,CTAGTAAAAAATGCAAGTACATACATTATAAGTATA [XGTACX_site3908],8.69 ± 0.35
13,ATATTGGAGCACAACACACACAAGTATAAATATGGA [CACACA_site6834],9.03 ± 0.45
14,AAAGAGAACAGAAGTACACACATGTTCTTTTAGTAA [CACACA_site5557],8.44 ± 0.47
15,ATATTCTGCTGTTTAGTGCAATTATGAAATTATGAT,8.68 ± 0.33
16,TAAAAAGAAATGTAAAGTACAAATTTGAATAACATG [XGTACX_site7981],8.76 ± 0.43
17,TTTTTTTTTCTTTGGTGTACAATGTAATAGAAAATA [XGTACX_site227],8.4 ± 0.3
18,AAAAAAAACAAACACACACACAAATATTTATATATT [CACACA_site436],8.6 ± 0.48
19,TTGATTTTTATTTTTAAAATAAATAAATTTCAAATG [TGCATGCA_negctrl_site199],7.97 ± 0.38
20,TAAAAAATAAAAATTGCACACTAAAAAATTACCCAC [CACACA_site5823],8.99 ± 0.61
21,ATATGTATTTATATATGTTTGATTTTTTTTTTTTTT [TGCATGCA_negctrl_site506],8.12 ± 0.4
22,AAATGAAATAAAATCATATATTTATAATTATTATAA [TGCATGCA_negctrl_site612],7.88 ± 0.3
